# Over roughly 18,000 sequences, “TetR repression strength (sort-seq, GFP reporter)” has its median near 0.23; the highest 2% begin near 0.68. The list shows a part of the results.
# Target: TetR (class B, Tn10) (UniProt P04483)
# Assay: TetR repression strength (sort-seq, GFP reporter) (relative to tetO2 = 1); higher = stronger repression
# Conditions: E. coli
# Method in brief: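 E. coli SIG10-MAX carried a low-copy plasmid library with eight randomized operator positions between a constitutive promoter and sfGFP, with TetR constitutively expressed. Cells grew 5 h at 37 °C in LB with 50 µg/mL chloramphenicol, then 10^6 cells were FACS-sorted into 13 fluorescence bins, each Illumina-sequenced. Repression strength is the top bin index plus one minus the read-weighted mean bin, divided by the wild-type operator value. Three independent transformations; variants with ≥30 reads in all replicates and CV ≤0.5 were averaged.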
# Chain of UniProt P04483 (P04483 whole entry): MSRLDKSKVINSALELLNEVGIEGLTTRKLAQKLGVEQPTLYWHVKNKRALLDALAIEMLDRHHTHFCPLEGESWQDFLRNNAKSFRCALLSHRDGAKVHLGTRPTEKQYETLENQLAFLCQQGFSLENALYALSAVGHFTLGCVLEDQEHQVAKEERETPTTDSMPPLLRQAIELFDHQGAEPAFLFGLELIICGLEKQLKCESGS
row,Sequence,TetR repression strength
1,TCCCGAACAGTGTACGAGA,0.0363
2,TCCCCCGAAGTGCATGAGA,0.14
3,TCCCCCTTAGTGGGTGAGA,0.00576
4,TCCCTGTCAGTGGTTGAGA,0.486
5,TCCCTTTCAGTGAGAGAGA,0.566
6,TCCCTCGGAGTCATGGAGA,0.132
7,TCCCGAGAAGTGGTGGAGA,0.0377
8,TCCCATTGAGTCCTGGAGA,0.306
9,TCCCTGAAAGTGTGAGAGA,0.0794
10,TCCCGCAGAGTCTGAGAGA,0.23
11,TCCCCTTTAGTTTAGGAGA,0.313
12,TCCCGTAAAGTCGAAGAGA,0.466
13,TCCCGACAAGTTGCTGAGA,0.0804
14,TCCCTAGTAGTAGCTGAGA,0.307
15,TCCCCCAGAGTTTCGGAGA,0.11
16,TCCCTGATAGTATTGGAGA,0.311
17,TCCCACGGAGTTCTAGAGA,0.219
18,TCCCTATTAGTCTCCGAGA,0.532
19,TCCCGGTGAGTGCCGGAGA,0.235
20,TCCCGCAGAGTGAGAGAGA,0.191
21,TCCCGTCAAGTGACAGAGA,0.145
22,TCCCTTAAAGTAGTTGAGA,0.228
23,TCCCGGAGAGTGCGCGAGA,0.116
24,TCCCATAAAGTCGCAGAGA,0.37
25,TCCCGCTCAGTACTAGAGA,0.173
26,TCCCCGTGAGTCGATGAGA,0.313

row,Sequence,TetR repression strength
1,TCCCGCGGAGTGGTAGAGA,0.115
2,TCCCCTGTAGTGCAGGAGA,0.128
3,TCCCTAAGAGTGCGGGAGA,0.0983
4,TCCCACGGAGTCGGCGAGA,0.148
5,TCCCTTCAAGTAGGAGAGA,0.281
6,TCCCACCGAGTGATGGAGA,0.167
7,TCCCGGTTAGTACTGGAGA,0.416
8,TCCCATCGAGTTCTGGAGA,0.0421
9,TCCCAGGTAGTAATAGAGA,0.443
10,TCCCGCGTAGTAATTGAGA,0.207
11,TCCCCTCGAGTGGTTGAGA,0.13
12,TCCCCGTCAGTCGTAGAGA,0.336
13,TCCCGCTAAGTATCCGAGA,0.0259
14,TCCCAAGGAGTAGTCGAGA,0.216
15,TCCCGGTGAGTTATCGAGA,0.196
16,TCCCTTAAAGTAGGTGAGA,0
17,TCCCGAAAAGTCGCTGAGA,0.133
18,TCCCTTCTAGTAGACGAGA,0.308
19,TCCCGTGCAGTAGCCGAGA,0.0632
20,TCCCGGTTAGTGTGTGAGA,0.17
21,TCCCGGTCAGTCCGCGAGA,0.162
22,TCCCATGAAGTTTGTGAGA,0.0431
23,TCCCCGGAAGTAGTCGAGA,0.168
24,TCCCTAAAAGTACAGGAGA,0.262
25,TCCCGGTGAGTGGCGGAGA,0.131
26,TCCCTGTTAGTACTGGAGA,0.322

row,Sequence,TetR repression strength
1,TCCCGTCGAGTTGTCGAGA,0.472
2,TCCCATTCAGTAAGGGAGA,0.194
3,TCCCGTCAAGTGGGGGAGA,0.151
4,TCCCTGCTAGTCTAGGAGA,0.121
5,TCCCGGTTAGTTTCCGAGA,0.284
6,TCCCAGTGAGTGTGTGAGA,0.118
7,TCCCTTTTAGTGATAGAGA,0.512
8,TCCCAGGAAGTTATCGAGA,0.254
9,TCCCTGCGAGTGCACGAGA,0.314
10,TCCCAGGGAGTAGCGGAGA,0.159
11,TCCCGTGTAGTAAAGGAGA,0.104
12,TCCCAGGGAGTGCTCGAGA,0.187
13,TCCCGTTCAGTCGGAGAGA,0.123
14,TCCCAGTGAGTCTTTGAGA,0.339
15,TCCCTTGAAGTTGGGGAGA,0.143
16,TCCCAATTAGTGGGAGAGA,0.147
17,TCCCGGGCAGTCGTAGAGA,0.285
18,TCCCAAACAGTTACGGAGA,0.149
19,TCCCGGTAAGTTCAGGAGA,0.3
20,TCCCGACGAGTTGCTGAGA,0.295
21,TCCCCTGCAGTCGACGAGA,0.14
22,TCCCTTGTAGTGCATGAGA,0.283
23,TCCCAAAGAGTGGCGGAGA,0.258
24,TCCCTTGTAGTGGTTGAGA,0.221
25,TCCCATGCAGTCCTGGAGA,0.358
26,TCCCGCACAGTATTAGAGA,0.422

row,Sequence,TetR repression strength
1,TCCCCAAGAGTGTGGGAGA,0.181
2,TCCCGTTCAGTGAGTGAGA,0.604
3,TCCCTCTAAGTGCAGGAGA,0.288
4,TCCCCGAAAGTGGTCGAGA,0.0236
5,TCCCAGGTAGTGGAGGAGA,0.104
6,TCCCATACAGTGGCCGAGA,0.167
7,TCCCATTCAGTCATGGAGA,0.279
8,TCCCTATCAGTGCACGAGA,0.569
9,TCCCGCCAAGTGTAGGAGA,0.303
10,TCCCAGCTAGTGGGCGAGA,0.161
11,TCCCCGTGAGTTAGTGAGA,0.0305
12,TCCCGAACAGTATTTGAGA,0.259
13,TCCCTCGCAGTGGATGAGA,0.323
14,TCCCTATAAGTGATAGAGA,0.994
15,TCCCGAGTAGTACGGGAGA,0.301
16,TCCCGTCCAGTTCGCGAGA,0.21
17,TCCCAGTGAGTGGCGGAGA,0.264
18,TCCCGATGAGTTTTTGAGA,0.174
19,TCCCATTCAGTTGACGAGA,0.141
20,TCCCTCAAAGTGGCGGAGA,0.157
21,TCCCGATTAGTAGAAGAGA,0.187
22,TCCCGTTAAGTGTGGGAGA,0.237
23,TCCCGCACAGTGCTTGAGA,0.271
24,TCCCGCCAAGTCTTGGAGA,0.182

# Reference: a collection of fitness landscapes (doi:10.1038/s41467-024-54723-y)
